{"source": "the supplement of paper PMC3334620", "note": "Over roughly 33,000 sequences, “E-score (-0.5 to 0.5)” has its median near -0.035; the highest 2% begin near 0.35. The list shows a part of the results."}
{"biological_target": "T1, Pdr3 (UniProt P33200)", "T1 sequence": "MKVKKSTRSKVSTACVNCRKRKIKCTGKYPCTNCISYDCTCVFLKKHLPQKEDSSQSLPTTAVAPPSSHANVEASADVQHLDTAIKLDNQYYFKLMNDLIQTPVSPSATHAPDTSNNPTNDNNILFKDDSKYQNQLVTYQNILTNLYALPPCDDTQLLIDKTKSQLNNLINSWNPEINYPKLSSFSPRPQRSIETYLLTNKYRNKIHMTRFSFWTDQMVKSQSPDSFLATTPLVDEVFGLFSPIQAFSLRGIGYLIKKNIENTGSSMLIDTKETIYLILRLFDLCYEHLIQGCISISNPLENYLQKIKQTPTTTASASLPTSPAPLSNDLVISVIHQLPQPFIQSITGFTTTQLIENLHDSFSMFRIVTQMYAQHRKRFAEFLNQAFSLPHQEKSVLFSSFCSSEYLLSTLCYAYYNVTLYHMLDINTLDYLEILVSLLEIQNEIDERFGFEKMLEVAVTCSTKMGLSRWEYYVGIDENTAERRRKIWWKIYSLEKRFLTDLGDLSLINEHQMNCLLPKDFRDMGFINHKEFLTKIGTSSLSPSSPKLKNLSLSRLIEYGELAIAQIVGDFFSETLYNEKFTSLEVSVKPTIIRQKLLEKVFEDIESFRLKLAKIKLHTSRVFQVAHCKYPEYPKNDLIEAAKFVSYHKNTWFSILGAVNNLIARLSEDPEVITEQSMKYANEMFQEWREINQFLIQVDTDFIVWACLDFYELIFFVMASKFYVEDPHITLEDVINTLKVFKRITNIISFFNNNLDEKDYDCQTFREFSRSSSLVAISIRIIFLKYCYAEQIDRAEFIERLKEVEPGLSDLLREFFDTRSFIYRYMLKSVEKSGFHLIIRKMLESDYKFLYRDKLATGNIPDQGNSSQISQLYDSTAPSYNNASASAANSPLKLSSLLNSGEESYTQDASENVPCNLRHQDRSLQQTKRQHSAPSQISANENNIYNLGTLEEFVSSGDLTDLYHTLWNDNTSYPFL", "experiment": "PBM E-score (8-mer binding enrichment) (E-score (-0.5 to 0.5)); higher = stronger / more preferred TF binding; most listed sequences are background and not binding sites", "details": "protein concentration: 200 nM; construct: GST-full length", "procedure,_shortened": "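For each ungapped eight-base word taken together with its reverse complement, the Universal PBM Analysis Suite assigned an E-score. Binding data came from GST-tagged yeast transcription factors, applied at about 100-200 nM, on universal all-10-mer Agilent arrays made double-stranded by primer extension. Fluorescent anti-GST marked bound protein, and scans were normalised with masliner.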"}
{"sequence": "CAAGTAGG", "PBM E-score": -0.219}
{"sequence": "GACCTCTA", "PBM E-score": -0.0949}
{"sequence": "GACGATCA", "PBM E-score": -0.161}
{"sequence": "ACGTCGCG", "PBM E-score": -0.0263}
{"sequence": "GTCATAAA", "PBM E-score": -0.112}
{"sequence": "AGAAATAT", "PBM E-score": 0.0879}
{"sequence": "AATAACTA", "PBM E-score": -0.0565}
{"sequence": "CGTCGAGA", "PBM E-score": 0.0361}
{"sequence": "CGGAGTAA", "PBM E-score": 0.326}
{"sequence": "GACGTGGC", "PBM E-score": -0.15}
{"sequence": "ATTAAAAT", "PBM E-score": 0.103}
{"sequence": "CTTATTCA", "PBM E-score": -0.156}
{"sequence": "TAATAAGA", "PBM E-score": -0.12}
{"sequence": "CGGGACTC", "PBM E-score": 0.238}
{"sequence": "ATCCCTGG", "PBM E-score": -0.0752}
{"sequence": "CAGTCGAA", "PBM E-score": -0.192}
{"sequence": "AAGTTATT", "PBM E-score": 0.0188}
{"sequence": "ACGCTAAA", "PBM E-score": -0.228}
{"sequence": "GGCCATCA", "PBM E-score": -0.00756}
{"sequence": "ACCTTCAT", "PBM E-score": 0.0018}
{"sequence": "GATCTGAA", "PBM E-score": -0.153}
{"sequence": "GGCGAGAC", "PBM E-score": -0.165}
{"sequence": "ATTTTGTC", "PBM E-score": 0.00507}
{"sequence": "CTGACTCA", "PBM E-score": -0.208}
{"sequence": "CAGTACGC", "PBM E-score": -0.104}
{"sequence": "CAATGTGG", "PBM E-score": -0.0954}
{"sequence": "ACTAGATA", "PBM E-score": 0.0203}
{"sequence": "ATAGTTTC", "PBM E-score": 0.0739}
{"sequence": "ATAAAGTG", "PBM E-score": -0.0125}
{"sequence": "CCTAGGAA", "PBM E-score": 0.0351}
{"sequence": "GATGTCTA", "PBM E-score": -0.124}
{"sequence": "AATGGAAT", "PBM E-score": 0.201}
{"sequence": "CCTTTACG", "PBM E-score": -0.00314}
{"sequence": "CTGAAGCC", "PBM E-score": -0.149}
{"sequence": "ACTGAGGC", "PBM E-score": 0.0522}
{"sequence": "AATCTATC", "PBM E-score": 0.00821}
{"sequence": "AACTGGAT", "PBM E-score": 0.12}
{"sequence": "GCACGGGA", "PBM E-score": 0.315}
{"sequence": "GACCTTTA", "PBM E-score": -0.0405}
{"sequence": "CTGCCCGC", "PBM E-score": 0.318}
{"sequence": "CGGTTATA", "PBM E-score": -0.0544}
{"sequence": "GAAGCGTA", "PBM E-score": 0.129}
{"sequence": "CCTTTCCA", "PBM E-score": -0.0113}
{"sequence": "GCCTCTAA", "PBM E-score": -0.202}
{"sequence": "CGATAACC", "PBM E-score": 0.0764}
{"sequence": "GGTCAGAC", "PBM E-score": -0.156}
{"sequence": "ATCCATCA", "PBM E-score": -0.0246}
{"sequence": "AATACTCC", "PBM E-score": 0.0403}
{"sequence": "CAGTGCCC", "PBM E-score": -0.155}
{"sequence": "CGTCGGGC", "PBM E-score": 0.0413}
{"sequence": "GAACTAAC", "PBM E-score": 0.0521}
{"sequence": "CTTATCCC", "PBM E-score": 0.00119}
{"sequence": "CTTACCAA", "PBM E-score": -0.108}
{"sequence": "CTATACCC", "PBM E-score": 0.0696}
{"sequence": "TGTCACAA", "PBM E-score": 0.105}
{"sequence": "ACTAACCT", "PBM E-score": 0.00892}
{"sequence": "CGGACGAG", "PBM E-score": 0.238}
{"sequence": "AATGAATA", "PBM E-score": 0.047}
{"sequence": "GTACCGCA", "PBM E-score": 0.151}
{"sequence": "CCAACACG", "PBM E-score": -0.0826}
{"sequence": "GCCTGTCC", "PBM E-score": -0.058}
{"sequence": "GATGCTGA", "PBM E-score": -0.15}
{"sequence": "ACGGAAAG", "PBM E-score": 0.44}
{"sequence": "GACGCTAC", "PBM E-score": 0.0166}
{"sequence": "GGCCGCGA", "PBM E-score": -0.0197}
{"sequence": "AGGAATTG", "PBM E-score": -0.00863}
{"sequence": "CCGAGTAG", "PBM E-score": 0.221}
{"sequence": "ATCCCGGG", "PBM E-score": 0.455}
{"sequence": "CAGCTGAA", "PBM E-score": -0.0134}
{"sequence": "TCTTCACA", "PBM E-score": -0.255}
{"sequence": "CGCACAAC", "PBM E-score": -0.0378}
{"sequence": "ATCTCCGA", "PBM E-score": 0.324}
{"sequence": "ATGAAGCC", "PBM E-score": 0.179}
{"sequence": "GTGATATA", "PBM E-score": -0.093}
{"sequence": "CACCTAGC", "PBM E-score": -0.236}
{"sequence": "ACTGAGTC", "PBM E-score": -0.0631}
{"sequence": "ACTCAAAC", "PBM E-score": -0.132}
{"sequence": "GACTTACC", "PBM E-score": 0.0346}
{"sequence": "CTCAGCGC", "PBM E-score": 0.0917}
{"sequence": "GGGGGGTA", "PBM E-score": -0.0904}
{"sequence": "AACAATTG", "PBM E-score": -0.189}
{"sequence": "AACGGCAT", "PBM E-score": 0.285}
{"sequence": "ACAACAGT", "PBM E-score": -0.0384}
{"sequence": "CAGATGAC", "PBM E-score": -0.223}
{"sequence": "CTACTAGC", "PBM E-score": 0.0647}
{"sequence": "ACGACCCC", "PBM E-score": -0.102}
